# Laboratory results: PubChem BioAssay (NCATS)
# This list was built around the results that the source calls inconclusive (neither active nor inactive); the mix of calls is not that of the screen. For part of these data: No potency is given beside an inconclusive call; the fits are too rough. Calls of active or inactive are those of the source. Calls come from the whole dose curve; as a rule, active = well fitted curve in the direction sought with a large enough effect; inconclusive = small, poorly fitted or top-dose-only effect, or another doubt; inactive = no such curve, though single readings can be large; an effect the other way counts as inactive or inconclusive.
# Assays:
# [1] = biological target: Ubiquitin carboxyl-terminal hydrolase 1 (Homo sapiens) (UniProt O94782); experiment: Inhibitors of USP1/UAF1: Pilot qHTS (AID 504865);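 note: rhodamine fluorescence freed from ubiquitin-rhodamine substrate followed over time; nearly all actives have a fitted effect of over 35% in size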
# Chain of UniProt O94782 (O94782 whole entry, looked up): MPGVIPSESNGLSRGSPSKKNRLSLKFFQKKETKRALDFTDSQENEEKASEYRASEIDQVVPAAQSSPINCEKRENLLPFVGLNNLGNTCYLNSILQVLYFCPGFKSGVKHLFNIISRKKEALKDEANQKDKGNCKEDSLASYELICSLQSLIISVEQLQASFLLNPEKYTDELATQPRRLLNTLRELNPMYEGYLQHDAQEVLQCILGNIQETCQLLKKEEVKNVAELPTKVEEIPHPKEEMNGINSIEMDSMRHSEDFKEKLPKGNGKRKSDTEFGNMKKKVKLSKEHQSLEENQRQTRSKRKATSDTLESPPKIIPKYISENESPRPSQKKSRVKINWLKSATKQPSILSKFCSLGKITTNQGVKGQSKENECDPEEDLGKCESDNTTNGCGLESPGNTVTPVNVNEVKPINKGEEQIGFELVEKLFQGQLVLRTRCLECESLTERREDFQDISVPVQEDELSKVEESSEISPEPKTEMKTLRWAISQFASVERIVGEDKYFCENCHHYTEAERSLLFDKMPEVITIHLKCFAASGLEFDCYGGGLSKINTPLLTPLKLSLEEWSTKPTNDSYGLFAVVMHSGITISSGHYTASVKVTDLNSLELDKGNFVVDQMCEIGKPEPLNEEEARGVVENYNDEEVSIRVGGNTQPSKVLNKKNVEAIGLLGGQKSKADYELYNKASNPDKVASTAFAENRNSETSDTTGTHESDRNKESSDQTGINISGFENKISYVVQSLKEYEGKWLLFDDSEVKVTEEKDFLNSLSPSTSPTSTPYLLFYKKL
# Method in brief: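 In 50mM HEPES pH 7.8 containing 0.5mM EDTA, 1mM TCEP, 0.1 mg/ml BSA and 0.01% Tween-20, 1nM USP1/UAF1 is exposed to compound for 15 min, then Ub-Rho (150nM final) is added and fluorescence is read over time.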
# [2] = S16 Schwann cell PMP22 intronic element firefly luciferase assay (AID 624032); note: nearly all actives have a fitted effect of over 30% in size
# Method in brief: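 Rat S16 Schwann cells stably carrying a PMP22 intronic element-driven Fluc reporter were seeded overnight, then exposed to compounds for 24 h at 37 °C. Luminescence was normalized to PTC124 (positive control) and DMSO (0% activity).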
# [3] = biological target: Phospholipid hydroperoxide glutathione peroxidase GPX4 (Homo sapiens) (UniProt P36969); experiment: Primary qHTS Assay for Inhibitors of Recombinant Selenoprotein Glutathione Peroxidase 4 (GPX4) (AID 1845192); note: nearly all actives have a fitted effect of over 65% in size; for activity change, negative = inhibition: % is set by controls: 0 for no effect and ±100 for the full control effect
# Chain of UniProt P36969 (P36969 whole entry, looked up): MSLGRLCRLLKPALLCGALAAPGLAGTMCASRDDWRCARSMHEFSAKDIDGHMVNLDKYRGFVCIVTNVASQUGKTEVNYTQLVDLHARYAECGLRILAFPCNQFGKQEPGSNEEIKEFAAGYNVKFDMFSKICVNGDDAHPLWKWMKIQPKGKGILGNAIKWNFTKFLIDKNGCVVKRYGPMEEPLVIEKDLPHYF
# Method in brief: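 GR-coupled readout: 100 nM GR, 1 mM GSH, 0.5 mM NADPH; NADPH fluorescence (ex 340/em 450 nm) read at t=0 and after 15 min RT. GPX4 200 nM, preincubated 30 min with compound; substrate 0.5 mM CHP.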
# [4] = tested on: CP215; experiment: qHTS profiling for inhibitors of Plasmodium falciparum proliferation (AID 504749); note: nearly all actives have a fitted effect of over 60% in size; settings: P. falciparum in erythrocytes, SYBR Green DNA, 72 h; series mostly up to 28.7 µM
# Method in brief: (§1)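 P. falciparum-infected erythrocytes (0.3% parasitemia, 2.5% hematocrit final) were exposed to compounds for 72 h at 37 C in 5% CO2, then lysed with SYBR Green buffer overnight at room temperature; parasite DNA fluorescence was normalized to artemisinin and DMSO controls.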
# [5] = tested on: CP260; experiment: as above; settings: P. falciparum in erythrocytes, SYBR Green DNA, 72 h; series mostly up to 28.7 µM
# Method in brief: as §1
# [6] = tested on: ICS; experiment: as above; settings: P. falciparum in erythrocytes, SYBR Green DNA, 72 h; series mostly up to 28.7 µM
# Method in brief: as §1
# [7] = tested on: PC26; experiment: as above; settings: P. falciparum in erythrocytes, SYBR Green DNA, 72 h; series mostly up to 28.7 µM
# Method in brief: as §1
# [8] = tested on: KB-3-1; experiment: Cytotoxic Profiling of Annotated Libraries Using Quantitative High-Throughput Screening (AID 1296008); settings: Five cell lines viability, CellTiter-Glo ATP luminescence, 48-72 h; max response: active compounds read low; note: nearly all actives have a fitted effect of over 60% in size; for max response: % is set by controls: 0 for no effect and ±100 for the full control effect
# Method in brief: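 Compounds were pin-transferred onto cells and incubated 48 or 72 hr at 37 degree Celsius, 95% humidity. CellTiter-Glo was added, plates sat 10 min at room temperature, then ATP-coupled luminescence was imaged as the viability read-out.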
# [9] = Drug repurposing screens with cells derived from glioblastoma tumor samples (AID 1345199); settings: GBM patient neurospheres viability, ATP luminescence, 48 h; Potency: tumour line A unless noted; activity, negative = cell killing: at 46 µM (top of the series), tumour line A unless noted; note: nearly all actives have a fitted effect of over 40% in size
# Method in brief: (§2)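 Four patient lines of CD133+ GBM neurospheres were screened at several concentrations; hits were retested in those lines plus three slower-growing GBM lines, using 48-hour treatment and ATP-based viability.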
# [10] = tested on: astro; experiment: as above; settings: viability, ATP luminescence, 48 h; activity, negative = cell killing: at 45.9 µM (top of the series)
# Method in brief: as §2
# [11] = P-glycoprotein substrates identified in KB-8-5-11 adenocarcinoma cell line, qHTS therapeutic library screen (AID 1346987); note: nearly all actives have a fitted effect of over 65% in size
# Method in brief: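 P-gp-mediated resistance screen: KB-8-5-11 cells treated 72 h with compounds in dose-response. CellTiter-Glo viability.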
# [12] = tested on: Zika virus NS2B-NS3 protease (linked construct); experiment: Primary screen NINDS Rhodamine qHTS for Zika virus inhibitors (AID 1347160); settings: activity change, negative = inhibition: at 57.1 µM (top of the series) unless noted; note: nearly all actives have a fitted effect of over 55% in size; for activity change, negative = inhibition: % is set by controls: 0 for no effect and ±100 for the full control effect
# Method in brief: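 Purified linked NS2B-NS3 protease (NS2B hydrophilic domain joined to NS3 protease by flexible linker), 25 nM in 10 mM Tris-HCl pH 8.0, 0.01% Tween 20. Compounds titrated, 15 min preincubation at room temperature; 1.5 microM Rhodamine110 substrate, FITC fluorescence change over 15 min.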
# [13] = Primary qHTS for inhibitors of nuclear receptor binding SET domain protein 2 (NSD2) in an RCH-ACV wild type WT cells (2C) (AID 1645877); settings: activity change, negative = cell killing: at 44.9 µM (top of the series) unless noted; note: nearly all actives have a fitted effect of over 70% in size; for activity change, negative = cell killing: % is set by controls: 0 for no effect and ±100 for the full control effect
# [14] = tested on: SKOV3; experiment: Primary qHTS to identify gynecologic anti-cancer compounds using libraries of approved drugs and bioactive compounds (AID 1345084); settings: Gynecologic cancer cell panel viability, ATPlite luminescence, 48 h; series mostly up to 57.5 µM; note: nearly all actives have a fitted effect of over 55% in size
# Method in brief: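 Five-point cytotoxicity, 48 h drug exposure at 37 C, 5% CO2, on cells seeded 16 h beforehand. ATP content read by ATPlite luminescence.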
# [15] = tested on: Zika virus NS2B-NS3 protease (unlinked complex); experiment: Primary screen GU Rhodamine qHTS for Zika virus inhibitors: Unlinked NS2B-NS3 protease assay (AID 1347159); note: nearly all actives have a fitted effect of over 60% in size
# Method in brief: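 Noncovalent NS2B hydrophilic domain–NS3 protease domain complex (25 nM) preincubated 15 min at room temperature with compounds (up to 114 microM) in 10 mM Tris-HCl pH 8.0, 0.01% Tween 20; 1.5 microM Rhodamine110 substrate added, fluorescence change over 15 min fitted to Hill equation.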
# [16] = Primary fluorescence-based thiol-reactive (MSTI) qHTS assay for identification of artifact compounds. (AID 1845221);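 note: thiol-reactive compounds lower the probe fluorescence signal; nearly all actives have a fitted effect of over 65% in size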
# Method in brief: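 Thiol-reactive compounds detected by quenching of 4 uM MSTI fluorescence (525/598 nm) after 1 h room-temperature dark incubation in PBS pH 7.4, 2% DMSO. qHTS titration; percent inhibition Hill-fitted against Acetyl-MSTI/MSTI controls.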
# Potency is the fitted concentration of half-maximal effect; tags give direction and shape of the fitted curve.
smiles,measurement,setting,value
CC1=C(/C=C/C(C)=C/C=C/C(C)=C/CO)C(C)(C)CCC1,Potency,[1],"inconclusive [inhibitor, partial curve, poor fit]"
same,Potency,[2],"inconclusive [inhibitor, partial curve, poor fit]"
same,Potency,[3],active: 17.8 µM
same,Potency,[4],"inconclusive [inhibitor, single point]"
same,Potency,[5],"inconclusive [inhibitor, single point]"
same,Potency,[6],active: 7.08 µM
same,Potency,[7],"inconclusive [inhibitor, single point]"
same,Potency,[8],"inconclusive [inhibitor, single point]"
same,Potency,[9],active: 31.6 µM
same,Potency,[10],"inconclusive [inhibitor, partial curve]"
CC#CCC(C)[C@H](O)/C=C/[C@@H]1[C@H]2C/C(=C/CCCC(=O)O)C[C@H]2C[C@H]1O (stereo not given in full),max response,[8],inactive: -19%
same,Potency,[9],active: 17.8 µM
COc1cc(C(C)C)c(Oc2cnc(N)nc2N)cc1I,Potency,[11],"inconclusive [inhibitor, single point]"
same,Potency,[12],inactive
same,Potency,[8],"inconclusive [inhibitor, single point]"
COC(=O)C(CC1(O)c2ccccc2N2C(=O)C(C)(C)N(O)C21)n1cnc2ccccc2c1=O (stereo not given),Potency,[13],inactive
same,max response,[8],inactive: 0.0146%
same,Potency,[14],inactive
CCCCCCCCCCCCCCCCSCC(COC)COP(=O)([O-])OCC[N+](C)(C)C (stereo not given),Potency,[8],"inconclusive [inhibitor, single point]"
same,Potency,[9],active: 22.4 µM
CC(C)(O)c1ccc2c(c1)C(O)C[C@H]1[C@](C)(C(=O)O)CCC[C@]21C (stereo not given in full),Potency,[15],"inconclusive [inhibitor, partial curve, poor fit]"
same,Potency,[3],inactive
same,Potency,[16],"inconclusive [inhibitor, partial curve]"
same,outcome,[8],inactive
same,Potency,[14],"inconclusive [rising, partial curve, poor fit]"
C/C=C/C1=CC2=CC(=O)C(C)(O)C(OC(=O)c3c(C)cc(O)cc3O)C2CO1 (stereo not given),Potency,[15],"inconclusive [inhibitor, partial curve, poor fit]"
same,Potency,[12],"inconclusive [inhibitor, single point]"
same,Potency,[13],"inconclusive [inhibitor, single point]"
same,max response,[8],inactive: 2.68%
same,Potency,[14],inactive
